Test results: the RNAGym collection of RNA variant scans (doi:10.7554/elife.90254)
The source gives no read counts; variants with many changes may rest on few reads.

B1: LINE1-mini (parent)
chain: GGCAGAGCUCAACACAGCGUGGCAAAGUGGCUGUGGCUAGACUGCC

Variants of: B1
Assay: self-cleavage, relative activity (ratio to wild type); higher = more cleavage; in vitro, sequencing; the parent is a self-cleaving ribozyme

Variant | self-cleavage
GGCGGGGCUCAACACAGCGUGGCAAAUUGGCUGUGUCUAGACUUCC [A4G A6G G27U G36U G44U] | 0.11
GGCAGAGCUCAACACAGCGUGACAAAGUGGCUGUGCCUAGACCGCC [G22A G36C U43C] | 0.1
GGCAGAGCUCGACACAGCGUGGCAAAGUGGCUAUGGCUAGAAUUCC [A11G G33A C42A G44U] | 0.02
GGCAGAGCUCAACACAGCGUUGCAAAGUGGCUACCGCUAGACUGCC [G21U G33A U34C G35C] | 0.02
GGCAGAGCUCAACACAGCGUGGCAAGGUGGCUGUGGCUAGUAUGCC [A26G A41U C42A] | 0.02
GGCCGAGCUCAACACAGCGUUACAAAGUGGCUGUUGCUAGACUGCC [A4C G21U G22A G35U] | 0.19
GGCAGAGCUCAACACAGCGUGGCAAACUGGCUGUGGCUAGAGUUCC [G27C C42G G44U] | 0.01
GGCAAAGCUCAACACAGCUUGGCAAAGUGGCUGCGGCAAGCCUGCC [G5A G19U U34C U38A A41C] | 0.01
GGCAGACCUCAACACAGCGUGUCAAAGUGGCUGUGGCUAGUCUGCC [G7C G22U A41U] | 0.24
GGCAAAGAGCAACACAGCGUGGCAAAGUGGCUGUGGCUAGACUGCC [G5A C8A U9G] | 0.06
GGCAGAGCUCUACGCAGCGUGGCAGAGUGGCUGUCGCUAGACUGCC [A11U A14G A25G G35C] | 0
GGCUGAGCACAACAAAGAGUGGCAAAGUGGCUGUGGCUAGACUGCC [A4U U9A C15A C18A] | 0.31
GGCAGACCUGAACACAUCGUGGCAAAGUGGCUGUGGCUAGACUGCG [G7C C10G G17U C46G] | 0.02
CUCAGAUCUCAACACAGCGUGGCAAAGUGGCUGUGGCUAGACUGCC [G1C G2U G7U] | 0.14
GGCAGAGCUCAAUAUAGGAUGGCAAAGUGGCUGUGGCAAGGCUGGC [C13U C15U C18G G19A U38A A41G C45G] | 0.04
GGCAGAGCUCAACACAGCGUGGCAGUGUGGCUGUGACUAGACUGCC [A25G A26U G36A] | 0.15
GGCAGAGCUCAAUACAGCGUGGCUUAGUGGCUGUGGCUGGAAUGCC [C13U A24U A25U A39G C42A] | 0.21
GGCAGUGCUCAACACAGCGUGGCAGAGUGGCUGUGUCUAGACUGAC [A6U A25G G36U C45A] | 0.05
GGCAGAGCUCAAGACAGCGUGGCAAAGUGGCUGUGGAGAGACUGCC [C13G C37A U38G] | 0.01

Variant | self-cleavage
GGCAGAGUUCAACAUAGCGUGGCAUAGUGGCAGUGGCUAGACUGCC [C8U C15U A25U U32A] | 0.02
GGCAUAGCACAACACAGCGAGGCAAAGUGGCUGUGGCUAGACUGCC [G5U U9A U20A] | 0.07
GGCAGUGCUCAACACAGCGUGGCAAAGUGGCUGUGGAUAGACUGCG [A6U C37A C46G] | 0.14
GACAGGGCUCAACACAGCGUGGCAACGUGGCUGUGGCUAGACUGCC [G2A A6G A26C] | 0.21
GGCAGAGCUCAGCACAACGUGGCAAAGUGGCUGUGGCUAGACUCCC [A12G G17A G44C] | 0.02
GGCAGAGCUGAACACAGCGUGGGAAAGUGGCUGUAGCUAGACUGCA [C10G C23G G35A C46A] | 0.02
GGCAGAGCUCUACAGUGCAUGGCAAAGUGGAUGUGACUAGACUGCC [A11U C15G A16U G19A C31A G36A] | 0.02
CGCAGAGCUCAACACAGCGUGGCAAAGUGGCUUUGGCAAGACUGCU [G1C G33U U38A C46U] | 0.01
GGCAGGGCUGAACGCAGCGUGGCAAAGUGGCUGUGUAUAGACUGCC [A6G C10G A14G G36U C37A] | 0.01
GGCAGAGCUCAACACAGCGUGGCAAAGUGGCUGUGGCAAGAUAGCC [U38A C42U U43A] | 0.05
GGCAGAGCUCAACACUGCGGGGCAAAGUCGCUGUGGCUAGACUGCC [A16U U20G G29C] | 0.2
GGCAGAGCUCAACACAGCGUGGUAAAGUUGUUGUGGCUAGACUGCC [C23U G29U C31U] | 0.14
GGCAGCGAUCAACACAGAGUGGCAAAGUGGCUGUGGCUAGACUGCC [A6C C8A C18A] | 0.18
GCCAGAGCUCAACACAGCGUGGCAAAGUGGCUGUCGGUAGUCUGCC [G2C G35C C37G A41U] | 0.02
GGCAGUGCUCAACACAGCGUGCCAAAGUGGCUAUGGCUAGACUGAC [A6U G22C G33A C45A] | 0.09
GGCAGAACUCAACCCAGCGUGGCAAAGUGGAUGUGGCUAGACUGCC [G7A A14C C31A] | 0.08
CGCAGAGCUCAACACAGCGCGGCAAAGUGGUUCUGGCUAGACUGCC [G1C U20C C31U G33C] | 0.02
GGCAGAGCUCAACUCAGCGUGGCAAAUUGGCUUUGGCAAGACUCCA [A14U G27U G33U U38A G44C C46A] | 0.06
GGCAGGGCUAAACACAGCGUGGCAAAGUAGCUGUGGCUAGACUGCC [A6G C10A G29A] | 0.01

Variant | self-cleavage
GGCAGAGCUAACCAGAGCGUGGCACAAUGGCUGUGGCUCGACUGCC [C10A A12C C15G A25C G27A A39C] | 0
GGCAGAGCUCAGCACCGGGUGGCAAAGUGGCUGUGGCUAUACUGCC [A12G A16C C18G G40U] | 0.17
GUGAGAGCUAAACACAGAGUGGGAAAGUGGCUGUGGCUAGACUGCC [G2U C3G C10A C18A C23G] | 0.03
GGCACAGCUCCAAACAGCGUGGCAAAGUGGCUGUGGCUCGACUGCC [G5C A11C C13A A39C] | 0.06
GGCAGAGCUCAACACAGCGUGGUAAAGUGGCUGUGGCUAGAGUGCU [C23U C42G C46U] | 0.02
GGCAGAGCUUAACACAACGUCGCAAAGUGGCUCUGGCUAGACUGCC [C10U G17A G21C G33C] | 0.04
GGCAGAGCUCAACCCAGCGUGGCAAAGUUGCUGUGGCUAGACAGAU [A14C G29U U43A C45A C46U] | 0.03
GGCAGAGCUAAACACAGCGUGGCAAAGUGGCUGUAGCUAGACUGCG [C10A G35A C46G] | 0.02
GGCACAGCUCAACACAGCGUGGCAACGUGGCUGUGGCUAGACUGGC [G5C A26C C45G] | 0.06
GGCAGAGAUCAACACAGCUUGGCAAAGUGGCUGUGGCUAGCCUUCC [C8A G19U A41C G44U] | 0.19
GGCAGAGCGCAACACAGCGUGGCAAUGUGGCUGUGGCUAUACUACC [U9G A26U G40U G44A] | 0.02
GGCAGAGCUCAACACAGCCUGGCAAAGUGGCUAUGGCUACACGGCC [G19C G33A G40C U43G] | 0.02
GGCAUGCCUCAACACAGCGUUGCAAAGUGGCUGUGGCUAGACUGCC [G5U A6G G7C G21U] | 0.04
GGCAGAGCUCAGUACAGAGUGCCAAAGUGGCUGUGGCUAGACUUAC [A12G C13U C18A G22C G44U C45A] | 0.01
GGCAGAGUUCAACAUAGCGUGCCAAAGUGCCUGUGGCAAGACUGCC [C8U C15U G22C G30C U38A] | 0.13
GGCAGAGGUCAACACAGCGUGGCUAAGUGGCUGUGGCUAGACUGCA [C8G A24U C46A] | 0.03
GGCAGAGCUCAACACAGCGUGGCAAAGUGUCUGUGCCUAGAAUGCC [G30U G36C C42A] | 0.06
AGCAUAGCUCAACACAGCGUGGCAAAGUGGCUGUGGUUAGACUGCC [G1A G5U C37U] | 0.04
